In patent US6437143B1, “Thiazolidone-2 derivatives, 4-diketone substituted, method for obtaining them and pharmaceutical compositions containing same” (Merck Patent Gesellschaft mit beschrankter Haftung, priority 1996, dated 2002) one finds melting point data, which are given here for 1 compound.

Like-named read-outs stand apart in the source and are kept apart here. Some values that stand alone complete this part of the results.

As to `O=C1NC(=O)C(CCOc2ccccc2)S1` (centres unmarked) (hydrate or solvate) [Compound 1, 5-(2-phenoxyethyl)-2,4-thiazolidinedione], the melting point is, setting by setting: (anhydrous form) 81 to 83 °C; (hemihydrate) 105 to 107 °C.
